# PubChem BioAssay (NCATS)
# Results filed as inconclusive are left out. Unless noted, calls follow the shape of the full dose curve. Some entries of the source have several records that differ or are many. The other results are left out here. The source may hold further records. The values listed for one entry are repeats across runs, samples, wells, individuals or studies. The source holds several records for some structures; these can differ, active in one and inactive in another. Brackets tell where a record comes from. A, B and so on number the origins entry by entry.
# Experiments:
# [1] = qHTS for Inhibitors of the Functional Ribonucleoprotein Complex (vRNP) of Lassa (LASV) Arenavirus: LASV Primary Screen - GLuc reporter signal (AID 1347082; calls by dose curve; tested in HEK293 reporter line; also: nearly all actives have a fitted effect of over 60% in size; also: potency is read from the fitted curve at half-maximal effect)
# [2] = biological target: Nucleoprotein (Lymphocytic choriomeningitis virus (strain Armstrong)) (UniProt P09992); test: qHTS for Inhibitors of the Functional Ribonucleoprotein Complex (vRNP) of Lymphocytic Choriomeningitis Arenaviruses (LCMV): LCMV Primary Screen - GLuc reporter signal (AID 1347086); also: nearly all actives have a fitted effect of over 70% in size; also: potency is read from the fitted curve at half-maximal effect
# [3] = Cell Viability qHTS for small molecule stabilizers of the endoplasmic reticulum resident proteome (AID 1508629; active = well fitted curve in the direction sought with a large enough effect; an effect the other way counts as inactive or inconclusive;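 also: human SH-SY5Y neuroblastoma cells carrying the GLuc-SERCaMP reporter; compound exposure about 46 h in total before the viability read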); conditions: cell viability counter-screen, 100 nM thapsigargin for final 4 h
# [4] = qHTS for Inhibitors of the Functional Ribonucleoprotein Complex (vRNP) of Lymphocytic Choriomeningitis Arenaviruses (LCMV): Viability assay - alamar blue signal for LCMV Primary Screen (AID 1347085; calls by dose curve; tested in HEK293 reporter line; also: nearly all actives have a fitted effect of over 80% in size; also: potency is read from the fitted curve at half-maximal effect)
# [5] = qHTS for Inhibitors of the Functional Ribonucleoprotein Complex (vRNP) of Lassa (LASV) Arenavirus: Viability assay - alamar blue signal for LASV Primary Screen (AID 1347083; calls by dose curve; tested in HEK293 reporter line; also: nearly all actives have a fitted effect of over 80% in size; also: potency is read from the fitted curve at half-maximal effect)
# [6] = test system: Zika virus NS2B-NS3 protease (linked construct); test: Primary screen NINDS Rhodamine qHTS for Zika virus inhibitors (AID 1347160; active = well fitted curve in the direction sought with a large enough effect; an effect the other way counts as inactive or inconclusive; also: nearly all actives have a fitted effect of over 55% in size; also: potency is read from the fitted curve at half-maximal effect)
# Procedure, shortened: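 Each compound, titrated, sat 15 min with 25 nM linked protease before 1.5 microM Rhodamine110 substrate went in. Fluorescence gain over the next 15 min, in pH 8.0 Tris with Tween 20, gave Hill-fitted curves.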
# % is scaled to controls: 0 for no effect and ±100 for the full control effect.
# UniProt P09992, sequence (P09992 whole entry, looked up): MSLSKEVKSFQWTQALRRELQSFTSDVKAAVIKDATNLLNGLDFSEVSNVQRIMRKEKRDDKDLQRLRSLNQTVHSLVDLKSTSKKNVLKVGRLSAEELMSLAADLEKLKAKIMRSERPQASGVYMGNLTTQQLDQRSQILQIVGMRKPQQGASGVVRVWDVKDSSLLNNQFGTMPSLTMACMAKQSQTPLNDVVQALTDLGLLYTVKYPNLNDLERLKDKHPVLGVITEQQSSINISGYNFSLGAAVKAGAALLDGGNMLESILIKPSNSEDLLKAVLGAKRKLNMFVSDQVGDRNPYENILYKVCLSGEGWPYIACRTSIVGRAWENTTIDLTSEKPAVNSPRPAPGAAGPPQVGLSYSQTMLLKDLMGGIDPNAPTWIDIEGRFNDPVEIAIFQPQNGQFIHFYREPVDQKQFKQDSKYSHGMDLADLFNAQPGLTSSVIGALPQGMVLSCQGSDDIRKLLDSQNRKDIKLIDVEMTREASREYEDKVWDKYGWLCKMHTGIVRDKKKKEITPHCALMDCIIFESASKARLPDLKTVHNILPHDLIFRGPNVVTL
smiles,measurement,setting,value
O=c1ccc2ccc(O)c(O)c2o1,Potency,[1],inactive [sample A] and active: 17.2 µM [sample B] and inactive [sample C]
same,Potency,[2],inactive [sample A] and active: 15.3 µM [sample B] and inactive [sample C]
CC(C)[C@]1(O)[C@@H](OC(=O)c2ccc[nH]2)[C@@]2(O)[C@@]3(C)C[C@]4(O)O[C@@]5([C@H](O)[C@@H](C)CC[C@]35O)[C@@]2(O)C41C,max response,[3],"inactive: -21.8, 19.4, 15.8, 15.9% [separate samples]"
O=C1c2ccccc2-c2n[nH]c3cccc1c23,Potency,[4],inactive [sample A] and active: 24.3 µM [sample B]
Cc1ccc(S(=O)(=O)N[C@@H](Cc2ccccc2)C(=O)CCl)cc1,Potency,[5],inactive [sample A] and active: 24.3 µM [sample B]
CC(=O)O[C@H]1C(=O)[C@@]2(C)C([C@H](OC(=O)c3ccccc3)[C@]3(O)C[C@H](OC(=O)[C@H](O)[C@@H](NC(=O)c4ccccc4)c4ccccc4)C(C)=C1C3(C)C)[C@]1(OC(C)=O)CO[C@@H]1C[C@@H]2O (stereo partly specified),Potency,[5],inactive [sample A] and active: 7.7 nM [sample B]
same,Potency,[4],inactive [sample A] and active: 6.9 nM [sample B]
O=C1NC(=O)C(c2ccccc2[N+](=O)[O-])=C1Nc1ccc(O)c(Cl)c1,Potency,[5],inactive [sample A] and active: 2.73 µM [sample B]
same,Potency,[4],inactive [sample A] and active: 122 nM [sample B]
CN1C(=O)[C@]23CC4C(C)(C)[C@@]5(C[C@@]41CN2CC[C@@]3(C)O)C(=O)Nc1c5ccc2c1OC=CC(C)(C)O2 (stereo partly specified),Potency,[6],active: 12.6 µM [sample A] and inactive [sample B]
CN(C)CCCC1(c2ccc(F)cc2)OCc2cc(C#N)ccc21 (stereo unspecified),Potency,[2],inactive [sample A] and active: 24.3 µM [sample B]
O=C1C(c2c(O)[nH]c3ccccc23)=Nc2ccccc21,Potency,[1],inactive [sample A] and active: 3.43 µM [sample B]
same,Potency,[5],inactive [sample A] and active: 2.17 µM [sample B]
same,Potency,[4],inactive [sample A] and active: 611 nM [sample B]
same,Potency,[2],inactive [sample A] and active: 769 nM [sample B]
O=C(CCc1ccc(O)cc1)c1c(O)cc(O)cc1O,Potency,[1],inactive [sample A] and active: 5.44 µM [sample B] and inactive [sample C]
same,Potency,[5],inactive [sample A] and active: 2.73 µM [sample B] and inactive [sample C]
same,Potency,[4],inactive [sample A] and active: 3.43 µM [sample B] and inactive [sample C]
same,Potency,[2],inactive [sample A] and active: 3.06 µM [sample B] and inactive [sample C]
COc1ccc([C@@H]2CC(=O)c3c(O)cc(O[C@@H]4O[C@H](CO[C@@H]5O[C@@H](C)[C@H](O)[C@@H](O)[C@@H]5O)[C@@H](O)[C@H](O)[C@@H]4O)cc3O2)cc1O,Potency,[4],active: 13.7 µM [sample A] and inactive [sample B]
Oc1ccc2ccccc2c1SSc1c(O)ccc2ccccc12,Potency,[5],inactive [sample A] and active: 24.3 µM [sample B]
same,Potency,[4],inactive [sample A] and active: 12.2 µM [sample B]
same,Potency,[2],inactive [sample A] and active: 24.3 µM [sample B]
O=C1c2c(O)cc(O)cc2OC(c2ccc(O)c(O)c2)C1O (stereo unspecified),Potency,[4],inactive [sample A] and active: 17.2 µM [sample B]
same,Potency,[2],inactive [sample A] and active: 24.3 µM [sample B]
O=c1c(-c2ccc(O)cc2)coc2cc(O)ccc12,Potency,[5],inactive [sample A] and active: 19.3 µM [sample B] and inactive [sample C]
